{
  "source": "the supplement of paper PMC11417369",
  "note": "This is one part of the list.",
  "data": [
    {"tested_on": "PfAP2-HC AP2 domain (GST-tagged)", "test": "gcPBM binding intensity (ln(normalized median fluorescence intensity)); higher = stronger DNA binding", "how_it_was_run": "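Alexa488 anti-GST antibody, scanned at 488 nm, detected GST-tagged P. falciparum DNA-binding domains that had been expressed in E. coli and incubated for 1 h on an Agilent 4 × 180k array. The array carried primer-extended double-stranded 36-bp intergenic genomic probes and negative controls. Binding intensity is the highest Masliner-normalised natural-log median intensity across replicate spots of either orientation of each probe.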", "values": [
      {"sequence": "TTAGCCATTAATTCTCTACACACCTTTATGTTATTT [CACACA_site9212]", "gcPBM binding intensity (ln)": 9.97},
      {"sequence": "TTTTATAATATTTAAAGTACATTCTAAAAATATAAT [XGTACX_site8033]", "gcPBM binding intensity (ln)": 9.4},
      {"sequence": "CCCCCCCACGGACACACACACATACATACCACATAT [CACACA_site5303]", "gcPBM binding intensity (ln)": 11.3},
      {"sequence": "TATTAAACGAAACACACACACACACCCATATATAAA [CACACA_site759]", "gcPBM binding intensity (ln)": 11.5},
      {"sequence": "AAAAAGAATGTGAACACACACATTGAATCTAATTTA [CACACA_site6711]", "gcPBM binding intensity (ln)": 9.89},
      {"sequence": "AGATGATATATTATATATCCTTTTAATAAATGTAAT [CACACA_negctrl_site730]", "gcPBM binding intensity (ln)": 9.48},
      {"sequence": "ACATATAATATATATATATATATATATATATATAAT [GTGCAC_negctrl_site648]", "gcPBM binding intensity (ln)": 9.5},
      {"sequence": "TATATAAAAAATTCAATACACACCATATATAAATAT [CACACA_site3987]", "gcPBM binding intensity (ln)": 10.2},
      {"sequence": "TATTCATATTTAAAGGTGCAATATTTATTTTGTACA", "gcPBM binding intensity (ln)": 9.47},
      {"sequence": "TATTCTAATTTTTAAACACACAAATATAAATAAGTA [CACACA_site3149]", "gcPBM binding intensity (ln)": 9.52},
      {"sequence": "CTATTTATTATATATACATGCATATATATATTAATA [TGCATGCA_site527]", "gcPBM binding intensity (ln)": 9.38},
      {"sequence": "TAAAAATGTGTATGTACACACTTTATTTTTAATACA [CACACA_site7235]", "gcPBM binding intensity (ln)": 9.69},
      {"sequence": "AAAAAAAAAAAAATAGGTACGTAAATATTTCTTTAA [XGTACX_site6423]", "gcPBM binding intensity (ln)": 9.56},
      {"sequence": "TCTTTTAGTTTTATCCACATAATAAAAAGCAAAAAA [GTGCAC_negctrl_site368]", "gcPBM binding intensity (ln)": 9.42},
      {"sequence": "TATTCTTCAATTTAAAGTACAAAAATTACTATACTT [XGTACX_site6599]", "gcPBM binding intensity (ln)": 9.41},
      {"sequence": "AAAAAAAAAAAAAAGAGTACTTTTTTCTCATTACTA [XGTACX_site8353]", "gcPBM binding intensity (ln)": 9.39},
      {"sequence": "ATTGTGGCAATATATTGTACATGTAATATAAATATA [XGTACX_site5415]", "gcPBM binding intensity (ln)": 9.75},
      {"sequence": "AATTAAAATATATATATACACACGTAATTATATATA [CACACA_site3819]", "gcPBM binding intensity (ln)": 9.67},
      {"sequence": "AAAAAAAAAGGTAACGCATGCTTTTAGATTATATTA [TGCATGCA_site398]", "gcPBM binding intensity (ln)": 9.47},
      {"sequence": "TATAATTATATTTGGAGTACAAATTTTTTTTTTTTT [XGTACX_site7494]", "gcPBM binding intensity (ln)": 9.4},
      {"sequence": "AAGTATGCTTGCTACTTATTAAGTGGCAATATAATT [XGTACX_negctrl_site74]", "gcPBM binding intensity (ln)": 9.44},
      {"sequence": "TTTGTATAGTTGTAGGTGCATATCATTTTTAAATGT [GTGCAC_site9708]", "gcPBM binding intensity (ln)": 9.84},
      {"sequence": "TGTTAATAAAGGTGTACACAAAATAAAAAAAATTAT [CACACA_site4288]", "gcPBM binding intensity (ln)": 9.93},
      {"sequence": "AAATATATATGAAGATGTACATATATATATGTAAAT [XGTACX_site4039]", "gcPBM binding intensity (ln)": 9.87},
      {"sequence": "TAACACTTATAAAAAAGTACTGATGAAATAATACTA [XGTACX_site7305]", "gcPBM binding intensity (ln)": 9.57}
    ]}
  ]
}
